Laboratory results reported in publication PMC6149664, “Synthesis and In Vitro Antimycobacterial Activity of Novel N-Arylpiperazines Containing an Ethane-1,2-diyl Connecting Chain” (Molecules : A Journal of Synthetic Chemistry and Natural …, 2017).

Test system: human monocytic leukemia THP-1 cell line
Assay: In vitro cytotoxicity screening, LDH assay
Details: THP-1 cells, 24 h, highest tested concentration 30 μM

CC[C@@]1(O)C(=O)OCc2c1cc1n(c2=O)Cc2cc3ccccc3nc2-1 [camptothecin, reference compound]
LD50 (lethal dose to 50% of a cell population): 0.16 ± 0.07 µM
